Results taken from the supplement of paper PMC11417369.
± gives the standard deviation of the averaged measurements. Some of the results follow.

tested on: PfAP2-LT AP2 domain (GST-tagged); assay: gcPBM binding intensity (ln(normalized median fluorescence intensity)); higher = stronger DNA binding
Procedure, shortened: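 GST-fused DNA-binding domains of P. falciparum, expressed in E. coli, were applied at about 25 μg on average for 1 h to an Agilent 4 × 180k array of primer-extended double-stranded 36-bp intergenic genomic probes and negative controls. Binding intensity is the highest Masliner-normalised natural-log median intensity across replicate spots of either probe orientation, measured with Alexa488 anti-GST antibody and a 488 nm scan.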

Row | Sequence | gcPBM binding intensity (ln)
1 | AAAAAAAAAAATTAAAGTACTAATTAAAATTATATG [XGTACX_site5289] | 8.27 ± 0.55
2 | TATATATATATAATATGTACATATATTAAGCATTTT [XGTACX_site4470] | 8.81 ± 0.29
3 | ATGTAGGTTAATTATTGTACGTAGGGGGTGTATATT [XGTACX_site3973] | 9.7 ± 0.18
4 | TTCAGAGAATAAAAATGTACATATAATATTTTAAAA [XGTACX_site577] | 8.48 ± 0.5
5 | CTCTTGTCATTTTGCACACACACATGTATAGGTTAT [CACACA_site3057] | 9.85 ± 0.35
6 | TAAATTTGTGGGATTTCACACAGGTTTATTTACATT [CACACA_site5455] | 8.7 ± 0.42
7 | GTGTTAACTATTATGAGTACTTATGTATTAATTCAT [XGTACX_site7767] | 8.77 ± 0.37
8 | TTGCTTATTAAATGGGGTACATTATATATATATATA [XGTACX_site2515] | 8.99 ± 0.42
9 | TTTCTAATTTATATCACACACATATATTTATAGTAA [CACACA_site6280] | 8.83 ± 0.48
10 | GTTTACTAATATTGCACACGAATATGAAAAAGAGAA [CACACA_site2897] | 9.03 ± 0.42
11 | AGAGTATATAAAGTAACACACAATAAAATAAAATAA [CACACA_site2328] | 9.18 ± 0.49
12 | CATATAGTATAAATTTGTACATAAATATATATATAT [XGTACX_site7477] | 8.93 ± 0.3
13 | ATAATATCTTCTTTTTTTTTTTTTTTTTTTTTTTTT [CACACA_negctrl_site1005] | 8.62 ± 0.28
14 | AAATGATGCATTTGTCATTAAAATTGTGAAATATTA [CACACA_negctrl_site231] | 8.56 ± 0.47
15 | AAAAAAAAAAAAAAAAGTACATATATATATAATTAT [XGTACX_site7836] | 8.75 ± 0.47
16 | TATAATAAAATATGTACACACATACAGACATATATA [CACACA_site6693] | 9.11 ± 0.38
17 | TAATTAAGATGATAAAAATTGAAAAAACAATTTTAA [CACACA_negctrl_site658] | 8.24 ± 0.33
18 | ATATATATATAATGTGTACACACATATGTATTTATA [CACACA_site8170] | 9.15 ± 0.33
19 | CTGTTTTACTTTAGTAGTACAATAAAAATATAAAAA [XGTACX_site2934] | 8.41 ± 0.35
20 | TATTACCCATATTATACACACATATATTATATATAT [CACACA_site1567] | 9.22 ± 0.44
21 | AAAAAAAAAAAACATACACACAAATATATACATACA [CACACA_site4011] | 9.15 ± 0.33
22 | TAATTTTATATTAAAAGTACATAATAAAAACTATAA [XGTACX_site8779] | 8.32 ± 0.43

Row | Sequence | gcPBM binding intensity (ln)
23 | AAGAAATATATATATATATATATATATATATATGTA [TGCATGCA_negctrl_site442] | 9.53 ± 0.38
24 | AGAGCATAATAAAACACACACATACATACAGATATA [CACACA_site4671] | 9.58 ± 0.34
25 | TTTAAAAACAAATATTGTACAAATTAAAATATATCA [XGTACX_site7220] | 8.54 ± 0.4
26 | CACTAATATATATACAGTACATAATAAAGTATATAA [XGTACX_site6875] | 8.81 ± 0.38
27 | TGATGATATAAAAACACACACATATAATATAATACT [CACACA_site1208] | 9.4 ± 0.4
28 | AGTTATATGGTTAATACACACAACAAATGTTTCTTC [CACACA_site6642] | 9.06 ± 0.3
29 | GTGTGATGGTACAATATACACACTTAAAAAAAAAAA [CACACA_site8769] | 8.97 ± 0.49
30 | AAAAAATATATTTGCACACTCAAAAAAAAAAAAAAA [CACACA_site859] | 8.73 ± 0.47
31 | ATACATAAAATTAAAACACACATTTTATTAAATACG [CACACA_site2167] | 8.76 ± 0.39
32 | TAAGAAATAAATAGTACACACATAGACACACGCACA [CACACA_site6821] | 9.73 ± 0.23
33 | AATATAACTTAGAATTGTACATAAAAAAAAATATAT [XGTACX_site3313] | 8.77 ± 0.48
34 | TACCTAATATGTTATACACACATTATAAGTACATAT [CACACA_site7206] | 9.12 ± 0.28
35 | TATAAAATACATTTATAATATATATATATATTTTTT [TGCATGCA_negctrl_site435] | 8.45 ± 0.35
36 | ATATGAAATATATAAATATGTTTATATATATATATA [GTGCAC_negctrl_site94] | 8.96 ± 0.38
37 | AAACAAAATATGGTTCATGAGCAAAAGTTTATTTTG [XGTACX_negctrl_site531] | 8.73 ± 0.48
38 | ATTTATTTATACAAAGTGCAATATTTTGTTAAAGTC [GTGCAC_site9618] | 8.55 ± 0.38
39 | AATGTAAAATATAAATGTACATATATATATATATAT [XGTACX_site5071] | 9.61 ± 0.057
40 | CTCTTTTCTTATAATACACACAGTAATATATATATA [CACACA_site1520] | 8.88 ± 0.38
41 | ATACATATATATATATGTACACATAAACATGAGTGA [XGTACX_site3200] | 9.1 ± 0.49
42 | TAATGGAAACCATTTATTTTCTGCAATATATTTTTT [CACACA_negctrl_site1653] | 8.34 ± 0.46
43 | TTTACATCAACCTTTTCACACATTCATATACAGATA [CACACA_site6152] | 8.78 ± 0.42
44 | TGTGTTTATACGTTTTGTACATATTTTTATTTTGTA [XGTACX_site6425] | 8.97 ± 0.4

Row | Sequence | gcPBM binding intensity (ln)
45 | TCATTAAAGGAAAAATGTACGTATAAATAAATATAT [XGTACX_site2587] | 8.72 ± 0.4
46 | TTCAAAAAATAAAATAATAATATATATATAAATATA [XGTACX_negctrl_site84] | 8.32 ± 0.55
47 | TTTTTTATATTTAAACTTCACATGGTTTTCATTTAT [XGTACX_negctrl_site291] | 8.8 ± 0.5
48 | TTTTTTTTACATTCTGCACACAATTTATTTTTTTTT [CACACA_site36] | 9.16 ± 0.6
49 | AAATCAAACTTTGGTGTGCACAAATATATACATATA [GTGCAC_site9986] | 9.29 ± 0.47
50 | AAAAATGAGTGACACACACACATATAAATATAAATA [CACACA_site7115] | 9.44 ± 0.43
51 | TATAAAAAAAAAAAAAGTACTAACTTAAAACAATTT [XGTACX_site7969] | 8.46 ± 0.42
52 | TTGATAATTATATAATGTACTCATTATAATATGATG [XGTACX_site7813] | 8.55 ± 0.43
53 | TGATAAAGTAAATATACATGCGATTAGTTATATATA [TGCATGCA_site720] | 8.73 ± 0.37
54 | TTTATTCTCAAACACACACACATATATATATATATA [CACACA_site2895] | 9.88 ± 0.19
55 | TTTTATATATATATCACACACACACCCATGTTTTAA [CACACA_site79] | 9.67 ± 0.38
56 | TAATTAATAATAATATGTACATATTAATATATTATT [XGTACX_site6900] | 8.57 ± 0.38
57 | TATTTATTCTCCAACACACACACATATATTTATATA [CACACA_site7376] | 9.43 ± 0.26
58 | AGTTTGTCAATCAACACACACCTATTTATTATAGAT [CACACA_site7777] | 9.1 ± 0.37
59 | AAAAATTATAACTAAAAAAATCACACAAAATATTTT [TGCATGCA_negctrl_site28] | 8.46 ± 0.39
60 | TTGCATTTATTATACACACACAAAAAAATATATATA [CACACA_site238] | 9.14 ± 0.27
61 | GTGTTAAATGTTTACACACAAACTTGCAATAATTAT [CACACA_site3825] | 9.07 ± 0.34
62 | TATGTATTTAAGTTACCTGAACGTTCAGGTAAAATT [CACACA_negctrl_site1393] | 8.82 ± 0.52
63 | ACATATAAATATTGTGTGCACACACATAATATATAT | 9.85 ± 0.36
64 | GTAATTTTAAAGAAAAGTACACATTTATTAATTATT [XGTACX_site4468] | 8.39 ± 0.38
65 | GTGTAGTAAAATCGATGTACGTACAAATCAATTATT [XGTACX_site7662] | 9.16 ± 0.41
66 | AAAAAAATGAAGAAATGTACAAATTTCATTAATTTT [XGTACX_site354] | 8.55 ± 0.59

Row | Sequence | gcPBM binding intensity (ln)
67 | TATATATGTAAATGCACACATATGTGGATATACTTA [CACACA_site1699] | 9.18 ± 0.4
68 | TATAATAATTCTTTGAGTACTTAAACATGTGAAATT [XGTACX_site955] | 8.45 ± 0.39
69 | GCGAGATGCTAAAATGCATGTTGGGCATTAGTTAAA [TGCATGCA_site586] | 8.78 ± 0.45
70 | ATATTAATATATGTGGCACACATGTGGAGTCCTATT [CACACA_site213] | 9.27 ± 0.37
71 | TATCATTTCTAAAAAGGTACACATACATCATATATT [XGTACX_site3386] | 8.78 ± 0.45
72 | TATATAATATTTTTCACACACCATTTCCTTAAACAC [CACACA_site4862] | 9.07 ± 0.4
73 | CATATATGGTTATATACATGCACCATTATATTATTA [TGCATGCA_site520] | 8.71 ± 0.38
74 | GCAGGCTAAAAAATTACACACGAAAAAAATGAATTT [CACACA_site3417] | 8.79 ± 0.49
75 | TAAAAAAAAAGAAGGGGTACATGGATAATATATAAA [XGTACX_site8386] | 8.79 ± 0.47
76 | TGTATAACCTGTGTTACACACATTATGATTTATATA [CACACA_site525] | 8.97 ± 0.26
77 | CATTTTTACCGGTACTGTACATAAAAAAAAAAAAAG [XGTACX_site1548] | 8.63 ± 0.36
78 | TTATATGTTTTACAACGTACACAAAAAAAACTTATA [XGTACX_site4413] | 8.48 ± 0.38
79 | CAAAGAGAAATAAACACACACAAAATAAAGAAAAAA [CACACA_site2245] | 9.34 ± 0.4
80 | TTCTTTTTTCAACACACACACACAAGAAAATATATA [CACACA_site9019] | 9.51 ± 0.16
81 | AAAAAAAAAAAAAAAACACACATATAGATTTATATA [CACACA_site7196] | 8.65 ± 0.42
82 | TTTTTTCTATTGAGCACACATATCACGATTAGTACT [CACACA_site313] | 8.99 ± 0.41
83 | GCTCAATTTTTGGGTACACACAAATGTATAATAATA [CACACA_site2388] | 8.89 ± 0.4
84 | ATATATATTATTTCTACACACATATATATAATATGT [CACACA_site3374] | 9.32 ± 0.42
85 | GCACTCGTAAAAAGCACACATATAAAAACATTTATA [CACACA_site322] | 8.98 ± 0.45
86 | TGAACAGACAAATACACACACTCAAAAAAAAAAAAG [CACACA_site7287] | 9.35 ± 0.38
87 | CAATGCTTTATCAATACATGCATATATATAGAAATA [TGCATGCA_site857] | 8.67 ± 0.42
88 | ATTTTCAAATTCTATGCATGTGTATATTATAGATAA [TGCATGCA_site1003] | 8.61 ± 0.36
